# Assay results: the supplement of paper PMC8728848
# This is one part of the list.
# Assays:
# Assay in all cases: glycan array binding signal (z-score within array); higher = stronger binding
# Conditions in all cases: glycan notation: IUPAC condensed, linker removed
# [1] = target: Gal(b1-4)GlcNAc(b1-2)Man(a1-6)[Man(a1-3)]Man(b1-4)GlcNAc(b1-4)GlcNAc
# How it was run: (§1)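 The binding signal is a Z-score computed within each array and averaged over linkers. Arrays of the same protein sequence at different concentrations or buffers were also averaged together. Data originate from 3228 arrays in the Consortium for Functional Glycomics database, kept only where the protein sequence was available.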
# [2] = target: Gal(b1-4)GlcNAc(b1-2)[Gal(b1-4)GlcNAc(b1-4)]Man(a1-3)[Gal(b1-4)GlcNAc(b1-2)Man(a1-6)]Man(b1-4)GlcNAc(b1-4)GlcNAc
# How it was run: as §1
# [3] = target: Gal(b1-4)GlcNAc(b1-2)[Gal(b1-4)GlcNAc(b1-4)]Man(a1-3)[Gal(b1-4)GlcNAc(b1-2)[Gal(b1-4)GlcNAc(b1-6)]Man(a1-6)]Man(b1-4)GlcNAc(b1-4)GlcNAc
# How it was run: as §1
# [4] = target: Gal(b1-4)GlcNAc(b1-2)[Gal(b1-4)GlcNAc(b1-4)]Man(a1-3)[GlcNAc(b1-4)][Gal(b1-4)GlcNAc(b1-2)Man(a1-6)]Man(b1-4)GlcNAc(b1-4)GlcNAc
# How it was run: as §1
# [5] = target: Gal(b1-4)GlcNAc(b1-2)[Gal(b1-4)GlcNAc(b1-4)]Man(a1-3)[GlcNAc(b1-4)][Gal(b1-4)GlcNAc(b1-2)[Gal(b1-4)GlcNAc(b1-6)]Man(a1-6)]Man(b1-4)GlcNAc(b1-4)GlcNAc
# How it was run: as §1
# [6] = target: Gal(b1-4)GlcNAc(b1-2)[Gal(b1-4)GlcNAc(b1-6)]Man(a1-6)[Gal(b1-4)GlcNAc(b1-2)Man(a1-3)]Man(b1-4)GlcNAc(b1-4)GlcNAc
# How it was run: as §1
# [7] = target: Gal(b1-4)GlcNAc(b1-2)[Gal(b1-4)GlcNAc(b1-6)]Man(a1-6)[GlcNAc(b1-4)][Gal(b1-4)GlcNAc(b1-2)Man(a1-3)]Man(b1-4)GlcNAc(b1-4)GlcNAc
# How it was run: as §1
# [8] = target: Gal(b1-4)GlcNAc(b1-3)Gal(b1-3)GlcNAc
# How it was run: as §1
# [9] = target: Gal(b1-4)GlcNAc(b1-3)Gal(b1-4)Glc
# How it was run: as §1
# [10] = target: Gal(b1-4)GlcNAc(b1-3)Gal(b1-4)GlcNAc
# How it was run: as §1
# [11] = target: Gal(b1-4)GlcNAc(b1-3)Gal(b1-4)GlcNAc(b1-3)Gal(b1-4)GlcNAc
# How it was run: as §1
# [12] = target: Gal(b1-4)GlcNAc(b1-3)Gal(b1-4)[Fuc(a1-3)GlcNAc(b1-6)]Gal(b1-4)Glc
# How it was run: as §1
# [13] = target: Gal(b1-4)GlcNAc(b1-3)Gal(b1-4)[Fuc(a1-3)]GlcNAc(b1-3)Gal(b1-4)[Fuc(a1-3)]GlcNAc
# How it was run: as §1
# [14] = target: Gal(b1-4)GlcNAc(b1-3)GalNAc
# How it was run: as §1
# [15] = target: Gal(b1-4)GlcNAc(b1-3)[Gal(b1-4)GlcNAc(b1-6)]Gal(b1-4)GlcNAc
# How it was run: as §1
# [16] = target: Gal(b1-4)GlcNAc(b1-3)[Gal(b1-4)GlcNAc(b1-6)]GalNAc
# How it was run: as §1
# [17] = target: Gal(b1-4)GlcNAc(b1-3)[GlcNAc(b1-6)]Gal(b1-4)GlcNAc
# How it was run: as §1
# [18] = target: Gal(b1-4)GlcNAc(b1-6)Gal(b1-4)GlcNAc
# How it was run: as §1
# [19] = target: Gal(b1-4)GlcNAc(b1-6)GalNAc
# How it was run: as §1
# [20] = target: Gal(b1-4)GlcNAc(b1-6)[Gal(b1-3)]GalNAc
# How it was run: as §1
# Gal(b1-6)Gal = target: Gal(b1-6)Gal
# How it was run: as §1
# Gal3S(b1-3)GalNAc = target: Gal3S(b1-3)GalNAc
# How it was run: as §1
# Gal3S(b1-3)GlcNAc = target: Gal3S(b1-3)GlcNAc
# How it was run: as §1
# [21] = target: Gal3S(b1-3)[Fuc(a1-4)]GlcNAc
# How it was run: as §1
# Gal3S(b1-4)Glc = target: Gal3S(b1-4)Glc
# How it was run: as §1
# Gal3S(b1-4)Glc6S = target: Gal3S(b1-4)Glc6S
# How it was run: as §1
# Gal3S(b1-4)GlcNAc = target: Gal3S(b1-4)GlcNAc
# How it was run: as §1
# Gal3S(b1-4)GlcNAc6S = target: Gal3S(b1-4)GlcNAc6S
# How it was run: as §1
# [22] = target: Gal3S(b1-4)[Fuc(a1-3)]Glc
# How it was run: as §1
# [23] = target: Gal3S(b1-4)[Fuc(a1-3)]Glc6S
# How it was run: as §1
# Gal3S4S(b1-4)GlcNAc = target: Gal3S4S(b1-4)GlcNAc
# How it was run: as §1
# Gal3S6S(b1-4)GlcNAc = target: Gal3S6S(b1-4)GlcNAc
# How it was run: as §1
# Gal3S6S(b1-4)GlcNAc6S = target: Gal3S6S(b1-4)GlcNAc6S
# How it was run: as §1
# Gal4S(b1-4)GlcNAc = target: Gal4S(b1-4)GlcNAc
# How it was run: as §1
# Gal4S6S(b1-4)GlcNAc = target: Gal4S6S(b1-4)GlcNAc
# How it was run: as §1
# Gal6S(b1-3)GlcNAc = target: Gal6S(b1-3)GlcNAc
# How it was run: as §1
# Gal6S(b1-3)GlcNAc6S = target: Gal6S(b1-3)GlcNAc6S
# How it was run: as §1
# Gal6S(b1-4)Glc = target: Gal6S(b1-4)Glc
# How it was run: as §1
binder,measurement,setting,value
Gal 9 (Canis lupus) (protein) MAFSSSQPPYLSPGVPFSGKIQGGLQDGLKITINGTILYCNGTRFAVNFHSGHSDSDIAFHFNPRFEEGGYVVCNTKQKGSWGSEERKMQMPFQMGNPFELCFMVNSCDFKVTVNGSHFTQYSHRVPFHYVDTLSITGAVQLSYISFQSPGVWQSSSAPITQTVIHTVQTTPGQPFPNPIIPPTAYPTPTYPMPFFTSIPGGLYPSKSIIVSGTVLPGAKRFHINLRSGNDIAFHLNPRFNENTVVRNMQINNSWGSEERSLPRKMPFVQGQSFSVWIMCEGHCFKVAVDGEHLFEYYHRLKNLLAINNMEVAGDVQLTHVQT,glycan array binding signal (z-score),[1],-0.15
same,glycan array binding signal (z-score),[2],0.362
same,glycan array binding signal (z-score),[3],0.012
same,glycan array binding signal (z-score),[4],0.239
same,glycan array binding signal (z-score),[5],0.27
same,glycan array binding signal (z-score),[6],0.215
same,glycan array binding signal (z-score),[7],0.042
same,glycan array binding signal (z-score),[8],0.186
same,glycan array binding signal (z-score),[9],0.099
same,glycan array binding signal (z-score),[10],0.265
same,glycan array binding signal (z-score),[11],0.513
same,glycan array binding signal (z-score),[12],-0.123
same,glycan array binding signal (z-score),[13],0.213
same,glycan array binding signal (z-score),[14],0.001
same,glycan array binding signal (z-score),[15],0.39
same,glycan array binding signal (z-score),[16],0.018
same,glycan array binding signal (z-score),[17],0.222
same,glycan array binding signal (z-score),[18],0.154
same,glycan array binding signal (z-score),[19],-0.121
same,glycan array binding signal (z-score),[20],0.157
same,glycan array binding signal (z-score),Gal(b1-6)Gal,-0.357
same,glycan array binding signal (z-score),Gal3S(b1-3)GalNAc,5.93
same,glycan array binding signal (z-score),Gal3S(b1-3)GlcNAc,0.396
same,glycan array binding signal (z-score),[21],-0.331
same,glycan array binding signal (z-score),Gal3S(b1-4)Glc,1.28
same,glycan array binding signal (z-score),Gal3S(b1-4)Glc6S,3.83
same,glycan array binding signal (z-score),Gal3S(b1-4)GlcNAc,0.222
same,glycan array binding signal (z-score),Gal3S(b1-4)GlcNAc6S,1.21
same,glycan array binding signal (z-score),[22],-0.311
same,glycan array binding signal (z-score),[23],-0.295
same,glycan array binding signal (z-score),Gal3S4S(b1-4)GlcNAc,-0.342
same,glycan array binding signal (z-score),Gal3S6S(b1-4)GlcNAc,-0.352
same,glycan array binding signal (z-score),Gal3S6S(b1-4)GlcNAc6S,-0.308
same,glycan array binding signal (z-score),Gal4S(b1-4)GlcNAc,-0.337
same,glycan array binding signal (z-score),Gal4S6S(b1-4)GlcNAc,-0.339
same,glycan array binding signal (z-score),Gal6S(b1-3)GlcNAc,-0.359
same,glycan array binding signal (z-score),Gal6S(b1-3)GlcNAc6S,-0.32
same,glycan array binding signal (z-score),Gal6S(b1-4)Glc,-0.336
